Measurements from ChEMBL document CHEMBL4888484, “Replenishing the malaria drug discovery pipeline: Screening and hit evaluation of the MMV Hit Generation Library 1 (HGL1) against asexual blood stage Plasmodium falciparum ,using a nano luciferase reporter read-out” (2022).
About 540 (0.36%) of roughly 150,000 compounds showed an effect of 50% or more. The list shows a part of the results.

test system: Plasmodium falciparum; experiment: Primary screen in NF54 nanoGlo assay, in single point, at 2uM, 72h; a lower Z score goes with more inhibition; format: functional, Erythrocyte; settings: timepoint 72 hour

SMILES	% Inhibition	Z score
CC(C)[C@](C)(NCc1ncc(Cl)s1)C(N)=O	4%	-0.7
Cc1[nH]ccc1C(=O)N1CCN(c2ccc(C(=O)O)cc2)CC1	2%	-0.29
C[C@H](NC(=O)CCc1csc(N)n1)c1nc2c(s1)CCCC2	-10%	1.53
Cc1cc(OC(F)F)c(C(=O)NC(C)CCC2CCCO2)s1 (stereo unspecified)	43%	-4.11
C[C@H]1CCCN(c2ncnc(Oc3ccc(F)cc3)c2N)C1	5%	-0.71
Cc1ccc(-c2noc(-c3ccccc3S(=O)(=O)NCc3ccc(N(C)C)cc3)n2)cc1	-5%	0.87
CN(C)S(=O)(=O)N1C[C@H]2CC[C@@H](C1)N(C(=O)Cc1cccc(O)c1)C2	0%	0
CC1CC(CN(C)Cc2cnn(C)c2)CCN1C(=O)OC(C)(C)C (stereo unspecified)	5%	-0.68
CC1CC1C(=O)Nc1cc(F)ccc1NC(=O)c1ccccn1 (stereo unspecified)	34%	-4.94
CC(C)(C)N[C@H]1CC(=O)N(c2ccc3c(c2)OCO3)C1=O	-3%	0.51
O=S1(=O)C[C@H](NC2CCCCCC2)[C@@H](S(=O)(=O)c2cccs2)C1	1%	-0.17
O=C(CC1CCC(F)(F)CC1)Nc1ccc2c(c1F)CCNC2	-13%	1.83
Cc1cc(=O)c(C(=O)NCCc2ccccn2)c(Cc2cccc(F)c2)n1CCCN1CCOCC1	1%	-0.07
Cc1nn(C)c(C)c1CCCN[C@@H](C)c1cccc(O)c1	30%	-0.4
COc1ccccc1-c1n[nH]cc1CN1CCC[C@H](C(=O)NCc2ccccc2)CCNC(=O)CC1	-16%	2.09
COc1ccc(-c2c[n+]3ccccc3c(=O)[nH]2)cc1	-18%	2.11
C[C@@H](CCCC(C)(C)O)CCN1CCCNC(=O)C1	1%	-0.24
COc1ccc(CCNC(=O)CN(C)CCc2ccc(OC)c(OC)c2)cc1OC	3%	-0.46
CC(C)n1c(CCNC(=O)Cc2ccccc2F)nc2cccnc21	-7%	1.18
COc1cc(NC(=O)c2ccc(Oc3ccnc(-c4ccc(C)cc4)n3)cc2)cc(OC)c1	-11%	1.48
Cc1cnc(NC(=O)[C@@H]2Cc3ccccc3O2)s1	-10%	1.86

SMILES	% Inhibition	Z score
COc1ccc(Cl)cc1C(=O)NC(Cc1ccccn1)[C@H]1C[C@@H](O)C1 (stereo partly specified)	-2%	0.28
COc1cc(C(=O)[C@@H]2CC(=O)Nc3[nH]nc(C)c32)ccc1F	-7%	0.91
Cc1nc(C(=O)N2CCC(c3c(C)[nH]c4ccccc34)CC2)no1	23%	-2.6
N#CCn1cccc1-c1nc(-c2ccncc2)no1	-4%	0.69
COc1cccc2c1OC1(C)CC2C(S(=O)(=O)c2ccc(Cl)cc2)C(=O)N1 (stereo unspecified)	-3%	0.53
Cc1ccc(Cl)c(NC(=O)NC(C)(C)CCS(C)(=O)=O)c1	11%	-0.97
CCc1ccc(Cn2nc(C)nc2[C@]2(C)CCCN2)cc1	-15%	2.95
CCCc1cnc(C)nc1-c1cc(NCC(=O)O)nc2[nH]ccc12	-17%	1.91
Cc1n[nH]c(C)c1[C@@H](NC(N)=O)c1ccco1	0%	0.02
CC(C)c1cc(-c2nc([C@H]3CCC(=O)NC3)no2)n[nH]1	-10%	1.48
CCn1ncc(NC(=O)c2ccc(Cl)cc2)c(N2CCOCC2)c1=O	-8%	1.61
CCN1CCN(C2CN(S(=O)(=O)c3cc(C)cc(F)c3)C2)CC1	3%	-0.47
O=C(COC1CCCC1)NC(c1ccc(F)cc1)C1CCCO1 (stereo unspecified)	-10%	1.05
COc1cc(C(=O)N2CCC(c3noc(-c4cccc(F)c4)n3)CC2)cc(OC)c1OC	-9%	1.22
CC(C)(C)c1nc(C#N)c(NC[C@@H](c2ccco2)N2CCOCC2)o1	-4%	0.56
CN1CC2(CCN(Cc3ccc(C(F)(F)F)cc3)CC2)C[C@H]1C(=O)N1CCOCC1	13%	-1.96
Cn1cc(-c2nccnc2CNC(=O)c2cncc(F)c2)cn1	-14%	1.63
Cc1nc(NC(=O)c2cccnc2OCC(F)F)cc(C2CC2)n1	-5%	0.57
CC(CN1CCS(=O)(=O)C(C)C1)c1cccc(Cl)c1 (stereo unspecified)	4%	-0.49
CC(C)C[C@](C)(NCC(=O)N1CCC(C)CC1)C(N)=O	5%	-0.92
CCCN(Cc1c(-c2ccccc2)noc1N(C)C(C)C)C(=O)c1ccc(F)cc1	-3%	0.31

SMILES	% Inhibition	Z score
COc1ncccc1NC(=O)COc1cn(C)c(C)cc1=O	-2%	0.31
c1cc(CCn2ccc(NCc3ccc4c(c3)CCO4)n2)ccn1	-6%	1.04
CCN(C(=O)Cc1ccc2c(c1)CCCO2)c1cccnc1C	6%	-0.75
COc1ccc([C@H](C)Nc2cnn(C)c2)cc1Cn1cccn1	-11%	1.1
CCCS(=O)(=O)Nc1cc(-c2ccsc2)n[nH]1	5%	-0.51
COc1ccc(-c2c(C)n[nH]c2NC(=O)[C@@H]2COc3ccccc3O2)cc1OC	-12%	2.1
COc1ccc(-c2cc3n(n2)CCC(=O)N3Cc2ccc(C(=O)NCCN(C)C)cc2)cc1	10%	-1.14
CC(C)[C@H](NC(=O)Nc1ccc(Cl)cc1)C(=O)N1CCCCC1	3%	-0.37
COc1ccc(C(=O)N[C@H]2CC(=O)N(Cc3cccc4ccccc34)C2)cc1O	-14%	1.3
Fc1ccc([C@@H]2C[C@H](c3cccs3)n3nnnc3N2)cc1	-15%	1.95
O=C1CCCC[C@@H](C(=O)Nc2ccccc2N2CCc3ccccc32)N1	-2%	0.3
Cc1cc2cccc(NC(=O)N3CCCO[C@@H](CN4CCOCC4)C3)c2o1	-2%	0.25
Cc1n[nH]c(C)c1-c1cccc(C(=O)N2CCC3(CC2)N=C(N)NC3=O)c1	3%	-0.43
CCOc1cc(N2CCOCC2)c(OCC)cc1NC(=O)c1ccc(-n2cnnn2)cc1	-8%	1.18
Cc1ccc(-c2c(N3CCCC3)cn[nH]c2=O)cc1C	7%	-1.01
CCN(C1CC(C)(C)C1)S(=O)(=O)C1CC1	-3%	0.28
Cc1ccc(NS(C)(=O)=O)cc1NC(=O)NCC(F)(F)F	-15%	2.2
COC1CN(C(=O)C(C#N)Cc2ccc(C#N)cc2)CCC1C (stereo unspecified)	-10%	1.42
O=C(C[C@H]1C(=O)Nc2ccccc2N1C(=O)c1ccco1)Nc1cccc(Cl)c1	0%	-0.06
CCC(O)(CC)CNC(=O)NCc1nc(C)c(C)s1	-7%	0.83
O=C(CCn1cncn1)N1CCC[C@@]2(CCC(=O)N(Cc3cccnc3)C2)C1	5%	-1.05

SMILES	% Inhibition	Z score
FC(F)(F)c1nnc(N2CC[C@H]3CCCC[C@H]32)s1	-15%	1.89
Cn1nc(C2CCCO2)cc1NC(=O)NC(CC1CCCO1)C(F)(F)F (stereo unspecified)	-2%	0.33
C=C(C)CN(C)C(=O)[C@@H]1CCN(C(=O)OC(C)(C)C)C1	-17%	2.27
OCC1(CNC(c2cc(F)c(F)c(F)c2)c2cc(F)c(F)c(F)c2)COC1	-3%	0.56
O=c1[nH]c2ccc(F)cc2c(=O)n1C1CCN(S(=O)(=O)c2ccc3c(c2)CCO3)CC1	-7%	1.24
CCn1nccc1C(=O)N1CCC2(CCC(=O)N(Cc3cnc(C)cn3)C2)CC1	-6%	1.09
O=S(=O)(c1ccccc1)c1cnc2c(Br)c(-c3ccccc3)nn2c1-c1ccc(Cl)cc1	1%	-0.09
Cc1cnccc1NCCn1cc(-c2ccc3c(c2)OCCO3)nn1	-14%	2.42
COc1cc(Cl)cc2c1OC=CC(C(=O)Nc1ccc(C)cc1)=C2	39%	-5.19
CC(C(N)=O)N1CC(c2ccccc2)OC(c2ccc(F)cc2)C1 (stereo unspecified)	-13%	1.98
Cc1ccc(-c2nc(C)cc(OCC(=O)N3CCC[C@H](C)C3)n2)cc1	-9%	1.46
O=C(COC1CCCCC1)Nc1nnc[nH]1	3%	-0.48
COc1cccc(OC)c1-c1nc2c([nH]1)C[C@H](c1ccccc1)CNC2=O	-9%	1.69
C=CCc1c(OC)ccc2[nH]cc(S(=O)(=O)c3ccc(C)cc3)c12	-4%	0.44
c1ccc(-c2n[nH]c([C@@H]3CCCN3c3ncnc4[nH]ccc34)n2)cc1	-11%	1.35
Cc1nn(-c2ccccc2)c2c1nc(CCC(=O)NCCN1CCCCC1)c(=O)n2C	4%	-0.64
Cc1n[nH]c(C)c1[C@H](C)N(C)Cc1ccc2c(c1)CCO2	-9%	1.23
CCn1cc(-c2nc(C)nn2Cc2ccc3c(c2)OCO3)cn1	-12%	1.8
C=CCCC(=O)NCc1ccc(-c2ccco2)o1	-1%	0.19
COc1ccc(CCNC(=O)c2ccc(NC(=O)C3CC3C)cc2)cc1 (stereo unspecified)	-5%	0.94
